# Assay results: the supplement of paper PMC3334620
# The full ranking holds about 33,000 sequences; the median of “E-score (-0.5 to 0.5)” is about -0.012, and the highest 2% start at about 0.27. Some of the results follow.
# Target: T1, Vhr1 (UniProt P40522)
# T1 sequence: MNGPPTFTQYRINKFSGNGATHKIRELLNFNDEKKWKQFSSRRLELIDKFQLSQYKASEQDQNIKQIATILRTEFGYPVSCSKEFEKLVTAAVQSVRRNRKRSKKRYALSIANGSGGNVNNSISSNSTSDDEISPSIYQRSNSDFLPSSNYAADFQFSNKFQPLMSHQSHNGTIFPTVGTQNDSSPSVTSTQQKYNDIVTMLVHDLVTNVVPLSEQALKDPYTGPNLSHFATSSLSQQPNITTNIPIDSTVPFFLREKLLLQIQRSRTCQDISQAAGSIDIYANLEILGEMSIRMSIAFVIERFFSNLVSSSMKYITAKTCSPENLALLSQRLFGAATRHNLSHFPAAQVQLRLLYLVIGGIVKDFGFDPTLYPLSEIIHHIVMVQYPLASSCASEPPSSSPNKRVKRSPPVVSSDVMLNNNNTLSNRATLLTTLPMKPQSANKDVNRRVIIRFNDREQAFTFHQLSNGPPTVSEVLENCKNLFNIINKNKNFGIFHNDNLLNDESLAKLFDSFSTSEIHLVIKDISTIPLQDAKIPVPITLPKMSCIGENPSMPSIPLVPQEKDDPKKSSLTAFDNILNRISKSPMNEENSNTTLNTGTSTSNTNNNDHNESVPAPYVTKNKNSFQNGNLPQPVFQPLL
# Assay: PBM E-score (8-mer binding enrichment) (E-score (-0.5 to 0.5)); higher = stronger / more preferred TF binding; most listed sequences are background and not binding sites
# Settings: protein concentration: 200 nM; construct: GST-full length
# Procedure, shortened: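 Detection of bound protein used fluorescent anti-GST, with scans normalised by masliner. The proteins were GST-tagged yeast transcription factors applied at about 100-200 nM to universal all-10-mer Agilent arrays made double-stranded by primer extension. Each ungapped eight-base word, pooled with its reverse complement, was scored with an E-score from the Universal PBM Analysis Suite.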
row,Sequence,PBM E-score
1,GTTGCTTA,-0.0315
2,AACTTTGC,-0.175
3,CGAGTTTA,-0.0654
4,AACATCCG,-0.0171
5,AAAGTGCC,-0.213
6,CATTGTTC,0.0936
7,GCTATTGA,-0.0724
8,AATAGCCG,-0.118
9,ACTTCATA,-0.0172
10,ACAGTGCA,-0.00626
11,CACGGATA,0.232
12,CACTAAGG,0.0659
13,ACACATAT,0.22
14,CTGAGGTA,0.238
15,CAATGACC,0.105
16,GCGTGATA,-0.00623
17,AATTATAC,0.0204
18,AAAAGAGA,-0.16
19,ACGGTAGA,-0.0655
20,AGACAACG,0.0513
21,CGGATGAG,0.215
22,TCAGCTGA,0.138
23,ACTTTGCG,0.0985
24,ATGAGCAG,-0.0073
25,ACCATCCG,0.197

row,Sequence,PBM E-score
1,ATGCCGGG,-0.122
2,CCTACACA,0.142
3,ACCCATCG,0.25
4,GGACCTCC,-0.122
5,ATTCTCCC,0.131
6,CAGTCTGA,0.17
7,CGGTCGAA,-0.175
8,GCATTAGC,-0.213
9,ATTAAGAA,-0.148
10,GGGTACCA,-0.0543
11,ATCGCCTA,0.0387
12,ACAGAGTA,0.00135
13,GAGAAATA,-0.21
14,AATAAGGC,-0.195
15,ATCCAGAA,-0.00797
16,CACTTCAC,-0.105
17,AGCGCAAC,-0.145
18,CGGATTGC,-0.128
19,CTTTGAAC,-0.229
20,AAGTCAAG,-0.156
21,ATGTTCTG,0.0818
22,CCATTCCG,-0.14
23,TCAAACAA,-0.0913
24,GGTCTATA,-0.0175
25,CTTGCCAC,0.00934

row,Sequence,PBM E-score
1,GTTGGGCA,0.0111
2,AGTGCTTA,-0.14
3,AGTGGGCC,-0.222
4,GGTATTGA,-0.00982
5,GCCTTTAC,-0.213
6,AATACACT,0.0206
7,AAGTAGGT,-0.026
8,GTGTAAAA,-0.242
9,CTCCTATC,0.0917
10,ATGCGGGA,0.0413
11,ATTTTAAA,-0.169
12,ACGTTTTA,-0.138
13,GACTATAC,0.322
14,TACCTTAA,-0.224
15,CAGTCAGA,0.224
16,CCGGGGGC,-0.057
17,ACAGAGCT,-0.0507
18,CCGTATAA,0.129
19,AAATCGTT,0.0492
20,CCCTGCCA,0.0897
21,CCAGGCAG,-0.0625
22,ACAAATAG,0.0245
23,CACCCCAA,0.127
24,CCCGTTTA,-0.0994
25,ACGGAAAT,-0.0417

row,Sequence,PBM E-score
1,GAACGCAA,-0.0402
2,CTTGCGAA,0.0595
3,ACTGCGTC,-0.0401
4,ATCGTCGG,0.101
5,ACTCGTTC,0.0238
6,TAGCACCA,0.0215
7,GCGAGTCA,0.455
8,CGCAACTC,0.0218
9,AGGTTAGG,0.12
10,AACAAAAA,0.0406
11,ACCCAGGT,0.0206
12,ACTCTTTA,-0.0168
13,AATGCGTA,-0.0521
14,GTGCGTGA,0.16
15,CTCGCGCC,0.0702
16,AGCGACTA,0.211
17,CAAGGCTA,-0.00405
18,ACATCCTA,0.0428
19,CTTGCATC,-0.0129
20,ATGCCGCC,-0.133
21,CATGCAAC,0.131
22,AAAAGACC,-0.212
23,CCAGCGAC,0.105
24,CTAATAAC,-0.0351
25,AGTATAGG,-0.0334

row,Sequence,PBM E-score
1,ACCAATCC,0.052
2,AAACTGGT,0.173
3,CCTTGAAC,-0.121
4,GACACTGA,0.127
5,GAGTGTAC,-0.00291
6,GTAGCACA,0.055
7,CTCAAATA,-0.118
8,GGTAAGAC,0.0349
9,ACAAGGCC,-0.128
10,AGCTGGAT,0.173
11,CTTATACA,-0.0921
12,CTGATTTA,0.00054
13,AACCGGAT,0.0961
14,ATGTTCCG,0.0154
15,GATCATCC,0.141
16,ACAATTAG,0.0328
17,CCCGCACC,0.0419
18,AGAGACAT,0.095
19,AGTGACGA,0.139
20,AGAGTTTA,-0.085
21,CACGTCCG,-0.199
22,GGGGTTAA,-0.141
23,CGGACGGA,-0.134
24,AAAAGGTG,-0.153
25,ATACTAGG,0.0984

row,Sequence,PBM E-score
1,AAGGGCCC,-0.103
2,ATCACGCG,0.176
3,AGCGTACA,-0.0874
4,ATCATGGG,0.272
5,CCCCCGAG,-0.0369
6,AGGCCCGG,-0.234
7,AGAAGTTA,-0.173
8,CACAAGCA,0.0443
9,GGGCAACA,0.0901
10,GATGATAA,0.0353
11,ATTCAAGG,-0.0584
12,AACTGAGA,-0.114
13,CCCAATCG,-0.00353
14,ACCAGCGT,0.0656
15,GGTGCGTA,0.0599
16,AAAATTTG,-0.225
17,GGAGCACA,0.0648
18,AGCGCTCC,-0.126
19,ATGGTGTA,0.0975
20,CCACAGCA,0.088
21,ACCGCAAT,0.251
22,CATCTTGC,0.0744
23,AACACGCG,0.0101
24,AGCGTAAA,-0.0553
25,ATGCTAAA,-0.188

row,Sequence,PBM E-score
1,CAAAAATC,-0.209
2,ATTTGCCA,-0.315
3,AGATAACT,0.0464
4,GCGGATCA,0.0861
5,TCTCACCA,0.0878
6,CATATGCC,-0.0204
7,AAAAGCGT,-0.108
8,AAGCTATC,-0.0249
9,ATGTACGA,0.077
10,CAGGAACG,-0.096
11,GTAATTCA,-0.0794
12,GCCATGAC,0.0961
13,CGACAGGC,0.00361
14,ACGGGTAG,-0.0806
15,ACCTCCAG,-0.0853
16,GTAACCGA,0.118
17,ATGAAGTG,-0.149
18,CTGAGAGA,0.0295
19,ATCAGTGC,0.124
20,AGTTCTAA,-0.219
21,ACCACGCA,0.0308
22,CATACGCC,0.13
